According to patent US9126931B2 (priority 2009, dated 2015):

tested on: Human lymphoma cell line KARPAS-299; assay: cells; conditions: KARPAS-299, 96 h, read-out: Inhibitory activity on Karpas-299 cell growth IC50

Point of comparison: `CCN(CC)CCOc1ccc2c(c1)C(C)(C)c1[nH]c3cc(N(C)C(=O)Nc4ccc(OC)cc4)ccc3c1C2=O` [GT5-20, 1-[8-(2-Diethylamino-ethoxy)-6,6-dimethyl-11-oxo-6,11-dihydro-5H-benzo[b]carbazol-3-yl]-3-(4-methoxy-phenyl)-1-methyl-urea], IC50 6080 nM. Against it:
- CC1(C)c2cc(N3CCC(N4CCCC4)CC3)c(C3=CCN(S(C)(=O)=O)CC3)cc2C(=O)c2c1[nH]c1cc(C#N)ccc21 [Compound F6-2, 9-(1-Methanesulfonyl-1,2,3,6-tetrahydro-pyridin-4-yl)-6,6-dimethyl-11-oxo-8-(4-pyrrolidin-1-yl-piperidin-1-yl)-6,11-dihydro-5H-benzo[b]carbazole-3-carbonitrile] — 210-fold lower, 29.5 nM
- CC1(C)c2cc(S(=O)(=O)CC(O)CO)ccc2C(=O)c2c1[nH]c1cc(C#N)ccc21 (centres unmarked) [Compound B3-12, 8-(2,3-Dihydroxy-propane-1-sulfonyl)-6,6-dimethyl-11-oxo-6,11-dihydro-5H-benzo[b]carbazole-3-carbonitrile] — 4.2-fold lower, 1440 nM
- CC1(C)c2cc(N3CCN(C4COC4)CC3)c(CCCN3CCOCC3)cc2C(=O)c2c1[nH]c1cc(C#N)ccc21 [Compound F6-11, 6,6-Dimethyl-9-(3-morpholin-4-yl-propyl)-8-(4-oxetan-3-yl-piperazin-1-yl)-11-oxo-6,11-dihydro-5H-benzo[b]carbazole-3-carbonitrile] — 78-fold lower, 77.6 nM
- CC1(C)c2cc(OCC3CCN(C4CN(S(C)(=O)=O)C4)CC3)ccc2C(=O)c2c1[nH]c1cc(Br)ccc21 [Compound T14-9, 3-Bromo-8-[1-(1-methanesulfonyl-azetidin-3-yl)-piperidin-4-ylmethoxy]-6,6-dimethyl-5,6-dihydro-benzo[b]carbazol-11-one] — 5.6-fold lower, 1080 nM
- CCOCCOC1CCN(c2cc3c(cc2CC)C(=O)c2c([nH]c4cc(C#N)ccc24)C3(C)C)CC1 [PR9-23, 8-[4-(2-Ethoxy-ethoxy)-piperidine-1-yl]-9-ethyl-6,6-dimethyl-11-oxo-6,11-dihydro-5H-benzo[b]carbazole-3-carbonitrile] — 300-fold lower, 20.5 nM
- CNS(=O)(=O)N1CCN(C(=O)COc2ccc3c(c2)C(C)(C)c2[nH]c4cc(Br)ccc4c2C3=O)CC1 [Compound T13-10, 4-[2-(3-Bromo-6,6-dimethyl-11-oxo-6,11-dihydro-5H-benzo[b]carbazole-8-yl-oxy)-acetyl]-piperazine-1-sulfonic acid methylamide] — 4.4-fold lower, 1380 nM
- CC(C)N1CCC(c2ccc3c(c2)C(=O)c2c([nH]c4cc(C#N)ccc24)C3(C)C)CC1 [Compound J9-3, 9-(1-Isopropyl-piperidin-4-yl)-6,6-dimethyl-11-oxo-6,11-dihydro-5H-benzo[b]carbazole-3-carbonitrile] — 110-fold lower, 53.2 nM
- CC(C)Oc1cc2c(cc1Oc1ccncc1)C(C)(C)c1[nH]c3cc(C#N)ccc3c1C2=O [Compound L10-10, 9-Isopropoxy-6,6-dimethyl-11-oxo-8-(pyridin-4-yloxy)-6,11-dihydro-5H-benzo[b]carbazole-3-carbonitrile] — 38-fold lower, 159 nM
- CNS(=O)(=O)N1CCC(c2ccc3c(c2)C(C)(C)c2[nH]c4cc(C#N)ccc4c2C3=O)CC1 [Compound B4-4, 4-(3-Cyano-6,6-dimethyl-11-oxo-6,11-dihydro-5H-benzo[b]carbazol-8-yl)-piperidine-1-sulfonic acid methylamide] — 75-fold lower, 81.2 nM
- CCCc1cc2c(cc1N1CCN(C3CCC3)CC1)C(C)(C)c1[nH]c3cc(C#N)ccc3c1C2=O [Compound F6-18, 8-(4-Cyclobutyl-piperazin-1-yl)-6,6-dimethyl-11-oxo-9-propyl-6,11-dihydro-5H-benzo[b]carbazole-3-carbonitrile] — 260-fold lower, 23.1 nM
- CC1(C)c2cc(N3CCC(N4CCCC4)CC3)ccc2C(=O)c2c1[nH]c1cc(C#N)ccc21 [Compound B2-4, 6,6-Dimethyl-11-oxo-8-(4-pyrrolidin-1-yl-piperidin-1-yl)-6,11-dihydro-5H-benzo[b]carbazole-3-carbonitrile] — 170-fold lower, 36.5 nM
- CN(C)S(=O)(=O)N1CCN(Cc2ccc3c(c2)C(C)(C)c2[nH]c4cc(C#N)ccc4c2C3=O)CC1 [Compound B3-36, 4-(3-Cyano-6,6-dimethyl-11-oxo-6,11-dihydro-5H-benzo[b]carbazol-8-ylmethyl)-piperazine-1-sulfonic acid dimethylamide] — 160-fold lower, 39 nM
- CC1(C)c2cc(OCc3ccncc3)ccc2C(=O)c2c1[nH]c1cc(C#N)ccc21 [Compound A7-7, 6,6-Dimethyl-11-oxo-8-(pyridin-4-ylmethoxy)-6,11-dihydro-5H-benzo[b]carbazole-3-carbonitrile] — 18-fold lower, 329 nM
- CCN(CC)CCSc1cc2c(cc1OC)C(C)(C)c1[nH]c3cc(C#N)ccc3c1C2=O [Compound E4-4, 9-(2-Diethylamino-ethylsulfanyl)-8-methoxy-6,6-dimethyl-11-oxo-6,11-dihydro-5H-benzo[b]carbazole-3-carbonitrile] — 56-fold lower, 109 nM
- CC1(C)c2cc(OCCS(C)(=O)=O)ccc2C(=O)c2c1[nH]c1cc(C#N)ccc21 [Compound A8-3, 8-(2-Methanesulfonyl-ethoxy)-6,6-dimethyl-11-oxo-6,11-dihydro-5H-benzo[b]carbazole-3-carbonitrile] — 70-fold lower, 86.6 nM
- CCc1cc2c(cc1N1CCC(C#N)(N3CCOCC3)CC1)C(C)(C)c1[nH]c3cc(C#N)ccc3c1C2=O [PR11-21, 8-(4-Cyano-4-morpholine-4-yl-piperidine-1-yl)-9-ethyl-6,6-dimethyl-11-oxo-6,11-dihydro-5H-benzo[b]carbazole-3-carbonitrile] — 94-fold lower, 64.4 nM
- COc1ccc2c(c1)C(C)(C)c1[nH]c3c(OC[C@@H](O)CO)c(C#N)ccc3c1C2=O [Compound U10-2, 4-((S)-2,3-Dihydroxy-propoxy)-8-methoxy-6,6-dimethyl-11-oxo-6,11-dihydro-5H-benzo[b]carbazole-3-carbonitrile] — 6.5-fold lower, 940 nM
- COCCN1CCC(Oc2ccc3c(c2)C(C)(C)c2[nH]c4cc(C#N)ccc4c2C3=O)CC1 [Compound A9-5, 8-[1-(2-Methoxy-ethyl)-piperidin-4-yloxy]-6,6-dimethyl-11-oxo-6,11-dihydro-5H-benzo[b]carbazole-3-carbonitrile] — 120-fold lower, 52.3 nM
- CC1(C)c2cc(OC[C@@H](O)[C@H](O)CO)ccc2C(=O)c2c1oc1cc(OC(=O)NC3CCCCC3)ccc21 [GT13-25, Cyclohexyl-carbamic acid 6,6-dimethyl-11-oxo-8-((2R,3R)-2,3,4-trihydroxy-butoxy)-6,11-dihydro-benzo[b]naphtho[2,3-d]furan-3-yl ester] — within 1.5-fold, 5510 nM
- COCCN1CCN(C(=O)c2ccc3c(c2)C(C)(C)c2[nH]c4cc(C#N)ccc4c2C3=O)CC1 [Compound B3-30, 8-[4-(2-Methoxy-ethyl)-piperazin-1-carbonyl]-6,6-dimethyl-11-oxo-6,11-dihydro-5H-benzo[b]carbazole-3-carbonitrile] — 27-fold lower, 228 nM
- CC(C)(C)N1CCN(c2cc3c(cc2Br)C(=O)c2c([nH]c4cc(C#N)ccc24)C32CCOCC2)CC1 [Compound O8-5, 9-Bromo-8-(4-tert-butylpiperazin-1-yl)-11-oxo-2′,3′,5,5′,6′,11-hexahydrospiro[benzo[b]carbazole-6,4′-pyran]-3-carbonitrile] — 200-fold lower, 30 nM
- COCCCc1cc2c(cc1N1CCN(C3COC3)CC1)C(C)(C)c1[nH]c3cc(C#N)ccc3c1C2=O [Compound F6-5, 9-(3-Methoxy-propyl)-6,6-dimethyl-8-(4-oxetan-3-yl-piperazin-1-yl)-11-oxo-6,11-dihydro-5H-benzo[b]carbazole-3-carbonitrile] — 220-fold lower, 27.4 nM
- CCc1cc2c(cc1N1CCN(C(=O)C(C)C)CC1)C(C)(C)c1[nH]c3cc(C#N)ccc3c1C2=O [Compound E9-5, 9-Ethyl-8-(4-isobutyryl-piperazin-1-yl)-6,6-dimethyl-11-oxo-6,11-dihydro-5H-benzo[b]carbazole-3-carbonitrile] — 150-fold lower, 41 nM
- CCc1cc2c(cc1N1CCC(N3CCOCC3)CC1)C(C)(C)c1[nH]c3cc(C#N)ccc3c1C2=O [Compound F6-20, 9-Ethyl-6,6-dimethyl-8-(4-morpholin-4-yl-piperidin-1-yl)-11-oxo-6,11-dihydro-5H-benzo[b]carbazole-3-carbonitrile] — 650-fold lower, 9.3 nM
- CC1(C)c2cc(N3CCN(CC4CC4)CC3)c(Br)cc2C(=O)c2c1[nH]c1cc(C#N)ccc21 [Compound F4-8, 9-Bromo-8-(4-cyclopropylmethyl-piperazin-1-yl)-6,6-dimethyl-11-oxo-6,11-dihydro-5H-benzo[b]carbazole-3-carbonitrile] — 280-fold lower, 22.1 nM
- CCc1cc2c(cc1N1CC(N3CCCCC3)C1)C(C)(C)c1[nH]c3cc(C#N)ccc3c1C2=O [PR9-11, 9-Ethyl-6,6-dimethyl-11-oxo-8-(3-piperidin-1-yl-azetidin-1-yl)-6,11-dihydro-5H-benzo[b]carbazole-3-carbonitrile] — 170-fold lower, 36 nM
- CC(C)Oc1cc2c(cc1OCC1CCN(C3CCC3)CC1)C(C)(C)c1[nH]c3cc(C#N)ccc3c1C2=O [Compound L10-5, 8-(1-Cyclobutyl-piperidin-4-ylmethoxy)-9-isopropoxy-6,6-dimethyl-11-oxo-6,11-dihydro-5H-benzo[b]carbazole-3-carbonitrile] — 320-fold lower, 19 nM
- COc1ccc2c(c1)C(C)(C)c1[nH]c3c(O)c(C#N)ccc3c1C2=O [Compound U9, 4-Hydroxy-8-methoxy-6,6-dimethyl-11-oxo-6,11-dihydro-5H-benzo[b]carbazole-3-carbonitrile] — 15-fold lower, 407 nM
- COCCOc1ccc2c3c(oc2c1)C(C)(C)c1cc(OC[C@@H](O)[C@H](O)CO)ccc1C3=O [GT13-16, 3-(2-Methoxy-ethoxy)-6,6-dimethyl-8-((2R,3R)-2,3,4-trihydroxy-butoxy)-6H-benzo[b]naphtho[2,3-d]furan-11-one] — within 1.5-fold, 7880 nM
- CC1(C)c2cc(OC[C@H](O)CO)ccc2C(=O)c2c1[nH]c1c(C#N)c(C#N)ccc21 [Compound U8-3-2, 8-((R)-2,3-Dihydroxy-propoxy)-6,6-dimethyl-11-oxo-6,11-dihydro-5H-benzo[b]carbazole-3,4-dicarbonitrile] — 9-fold lower, 677 nM
- COc1ccc2c(c1)C(C)(C)c1[nH]c3c(Br)c(C#N)ccc3c1C2=O [Compound U5, 4-Bromo-8-methoxy-6,6-dimethyl-11-oxo-6,11-dihydro-5H-benzo[b]carbazole-3-carbonitrile] — 50-fold lower, 122 nM
